Measurements published in the supplement of paper PMC3334620.
The full ranking holds about 33,000 sequences; the median of “E-score (-0.5 to 0.5)” is about -0.013, and the highest 2% start at about 0.3. The list shows a part of the results.

Biological target: T1, Msn1 (UniProt P22148)
T1 sequence: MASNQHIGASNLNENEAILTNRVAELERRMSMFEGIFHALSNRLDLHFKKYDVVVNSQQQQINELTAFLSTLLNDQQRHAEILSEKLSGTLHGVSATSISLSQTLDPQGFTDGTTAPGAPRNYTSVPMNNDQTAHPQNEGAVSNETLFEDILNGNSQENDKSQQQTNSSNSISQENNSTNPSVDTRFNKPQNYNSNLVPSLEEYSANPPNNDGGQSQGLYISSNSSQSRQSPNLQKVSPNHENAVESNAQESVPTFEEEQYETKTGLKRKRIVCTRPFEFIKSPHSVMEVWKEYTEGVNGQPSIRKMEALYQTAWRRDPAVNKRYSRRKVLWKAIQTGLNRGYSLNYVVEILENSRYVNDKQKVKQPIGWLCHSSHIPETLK
Test: PBM E-score (8-mer binding enrichment) (E-score (-0.5 to 0.5)); higher = stronger / more preferred TF binding; most listed sequences are background and not binding sites
Conditions: protein concentration: 200 nM; construct: GST-full length
In short: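 Masliner-normalised scans of fluorescent anti-GST signal were the basis for scoring. That signal came from GST-tagged yeast transcription factors applied at about 100-200 nM to double-stranded universal all-10-mer Agilent arrays on fresh or once-stripped slides. Each ungapped eight-base word, pooled with its reverse complement, received an E-score from the Universal PBM Analysis Suite.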

Sequence | PBM E-score
AACCCTTC | -0.16
ATGGACCA | 0.114
GTGTGTTA | -0.00116
ATCCGTGC | 0.0735
AATCTAAT | 0.0536
CGGCGGAA | -0.022
CGCGCAAC | -0.121
GCACTGAC | 0.0945
CATAGGAA | -0.187
TATTTGGA | -0.0819
GGCTATGA | -0.0731
GAGGACCA | -0.184
CCACGAGA | -0.0481
AGTCCTCC | -0.101
CCCAGACA | 0.199
ACACCAGT | -0.238
AGAACCCA | -0.128
CCCGATGC | -0.0486
GCCCTGGA | -0.205
ACACAAAC | 0.0132
ATAAGGGA | -0.00215
ATCGGAGC | 0.0147
AACGTAAT | 0.157
AGGCTCGC | 0.0181
CGAAGGAA | -0.0371

Sequence | PBM E-score
CCAGCCGC | -0.183
CCATTGAC | -0.112
AGATTAAA | 0.309
ATTCTAAA | 0.223
TCCGTTCA | -0.0111
AGAGTACG | -0.237
ATGTTAAT | 0.111
GAGGGACA | 0.447
CATGCTCG | -0.127
ATGGGACG | -0.188
CAAAGGGC | -0.0864
AAATGGCA | 0.123
GTAGTATA | 0.0405
AAGGCTTA | -0.00958
ACCGCATG | 0.104
AGGCGCCG | 0.076
AGTGTTAC | 0.0186
ACGCTTGA | 0.121
CTTTTAAA | 0.0756
CCGCAGCA | -0.0553
ATTACCTG | -0.0939
AAGGCCGT | 0.0285
ACGCCACC | -0.281
ATAATTTG | 0.255
AAACAACA | 0.125

Sequence | PBM E-score
CGATTATC | -0.109
TCTGAAGA | -0.0561
TCTCTGCA | -0.0804
AAGTTGTA | 0.077
CCACATCG | -0.00737
CGGGGATA | -0.125
AAGGGTCG | -0.127
AGGCATTA | -0.199
CATCGACG | 0.0449
GGCTGTAA | -0.0964
GTAGTGAC | 0.143
CGCATCCA | -0.135
GCTCGATA | -0.00424
AGATCTCA | -0.0747
CGGGGTCC | -0.137
GAGAACGA | -0.0692
GCCGTTGA | 0.011
GTTGTACA | 0.249
GGCCATGA | -0.107
GCTTATGA | -0.0236
AGGTGTTA | -0.135
AGACATCA | 0.2
ACTGTCAC | 0.00673
CAGGGTTA | -0.13
CGACGTCC | 0.0745

Sequence | PBM E-score
ATAGCTAC | -0.035
CCCGTTAA | -0.224
ACAATAAA | 0.171
ACGACGCT | -0.134
GCTCGAGA | 0.0552
AACATTGG | -0.147
GGTTTTTA | -0.0256
AGTTGGGC | -0.00283
GACCGAAA | 0.181
CCGCGGGA | 0.158
ACCGTAAG | 0.0553
ACTAACTA | 0.0816
ATGGGCTA | -0.00909
CCGGAGGA | -0.123
AAGTCTCG | 0.0533
CAAAAGTA | 0.254
TCTTTTAA | 0.154
CTCTCCAA | -0.133
CCGTTGAG | -0.128
ATGGCACA | 0.0112
CTATGGCA | -0.167
TCATGCCA | -0.0181
CAGCCCTC | -0.302
AGGCGGTG | -0.217
ACTAGCCG | -0.0777

Sequence | PBM E-score
CCTCTGCA | -0.174
CCAACCAA | -0.0724
ACACGGCC | -0.00717
CCTACGAC | 0.171
CGCTGAGC | 0.0366
TCGTAAAA | 0.151
AGTAATAT | 0.239
CTCAGACC | -0.138
GTGAGGTA | -0.141
CAGCCACC | -0.244
CAGGGCTC | -0.317
CACAAAAG | 0.194
CGAGAAAA | 0.188
CTAATCGC | 0.00241
AAGAAGCA | 0.00717
GCGCTACC | -0.0972
TTATCAAA | 0.19
AAGACGCT | 0.0551
TATGAACA | 0.0611
GCGAGGCA | 0.09
AAATGGAA | 0.131
ATTTAATA | 0.336
CCGCAAGG | -0.0816
ATTGCGGA | 0.145
GAGTCCAC | -0.156

Sequence | PBM E-score
CTAACGCA | -0.121
CGTAGCGA | -0.159
ACTCGAAT | -0.0552
TCAGCGAA | -0.0611
CAGCTTCA | 0.0811
AAACACGA | 0.0528
ATTCTCCG | 0.131
AGATTATA | -0.0345
CACACGAG | -0.0178
ATTTTGTA | 0.209
GGTGGGTA | -0.205
CGCGACCA | 0.127
CACGATTA | 0.145
ATCCTTCG | 0.0168
AAAACTGA | 0.17
GATGGCAC | -0.335
AGTCTGAC | -0.0486
TCACTGAA | 0.112
AAAACTCG | 0.259
CATCTCTC | -0.0153
ACTCAAAA | 0.102
CACCTCGA | 0.134
AGTCGTTC | -0.114
AGATGGAT | -0.162
ATTAGAGG | -0.174

Sequence | PBM E-score
ATTCTTAC | 0.0603
CCCAGGTC | -0.342
CCTGCGCC | -0.123
ATATAGAC | 0.194
CACCGTAA | 0.0343
CCCCAGAC | -0.163
ACGCAACG | 0.0849
GGAAATAC | -0.0295
AGCGTTAC | -0.226
ATGGAGAA | -0.0525
AGAACGGA | 0.0997
AGTCCGAC | 0.199
CTGCAATC | -0.0887
ATCCGTAG | -0.152
TAAGATGA | 0.0618
GACAATAC | 0.377
CCTCGACA | 0.0222
CTGTCAGA | 0.0132
CTACAGTA | -0.04
CGACGACC | -0.131
AAGGTTAA | -0.0953
CGCCTTCC | -0.254
